# Reference: the supplement of paper PMC11417369
# ± gives the standard deviation of the averaged measurements. This is one part of the list.
# System: PfAP2-EXP AP2 domain (GST-tagged)
# Experiment: gcPBM binding intensity (ln(normalized median fluorescence intensity)); higher = stronger DNA binding
# Procedure, shortened: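 Plasmodium falciparum DNA-binding domains carrying a GST tag were expressed in E. coli and applied for 1 h, at about 25 μg on average, to an Agilent 4 × 180k array. The array held primer-extended double-stranded 36-bp intergenic genomic probes together with negative controls, and binding took place in 1× PBS with 1% milk, 0.2 mg/ml BSA, 0.5% salmon testes DNA and 0.03% Triton X-100. An Alexa488 anti-GST antibody detected bound protein, and the array was scanned at 488 nm. Binding intensity is taken as the highest Masliner-normalised natural-log median intensity across replicate spots of either probe orientation.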
row,Sequence,gcPBM binding intensity (ln)
1,AATATATATATGTGTACACATCCAAAATAGGCATAC [CACACA_site5705],9.08 ± 0.4
2,TGTAAATATAAAAGATAATGATAAAAGGGACATTTT [CACACA_negctrl_site661],8.75 ± 0.37
3,ATCTATATTATAATAACACACATATATTATAGTATA [CACACA_site6330],8.34 ± 0.33
4,ATATATATATAAATATGTACATATTTATATATGAAT [XGTACX_site3220],9.5 ± 0.18
5,TTTTTTAAAGTTTAAAGTACATATAAAAATATATAA [XGTACX_site5267],8.19 ± 0.41
6,TATATATATATATTATGTACATATATAAATTAACAT [XGTACX_site3368],9.82 ± 0.25
7,CTTAAAATATATTTAGTGCATATACTAATATATTAT,8.41 ± 0.11
8,AATATAGGAATATGCACACATATATACATACATACA [CACACA_site1521],8.93 ± 0.15
9,TATGAAAAAAAAAAAAAAAAAAAAAAAAAAAAAAAA [XGTACX_negctrl_site587],7.93 ± 0.61
10,TATATATGGATATATACACACAACGGTTATAAATAT [CACACA_site6655],8.46 ± 0.46
11,AAAAAAATAAAATATATATATATATATATATATATA [GTGCAC_negctrl_site706],10.1 ± 0.39
12,TCTTTTATATATAATAATTATATATAACATTCAAAC [GTGCAC_negctrl_site112],8.45 ± 0.4
13,GTTAATCACCATGTGGTGCATATAAGGGCATATTAT [GTGCAC_site9748],8.95 ± 0.11
14,AATTAATAAAAAAGGTGTACAGTAAATGCAATAATC [XGTACX_site7956],9.42 ± 0.47
15,CCTTATACGATATTATGTACGCATATGTGCATTTTT [XGTACX_site1570],8.69 ± 0.38
16,ATAAATTCATACATTTGTACACAAAAAAAAAAAAAA [XGTACX_site2435],8.48 ± 0.56
17,TAATGGTATAAAAAATGTACATGTTTTTTTACAATT [XGTACX_site4285],8.45 ± 0.35
18,ATTATTTGATTAAAGGTGCAAGGATAATAATAAAAC,9.04 ± 0.3
19,ATATATATATATTTATGTACATATTATTTATTCTTT [XGTACX_site6567],9.94 ± 0.17
20,ACATATAATAAAATAGTGCATTGTTAGTTTTATATA,8.565 ± 0.064
21,TATATTTACTTATATGCACACATAAATGTGAATTAT [CACACA_site9258],8.37 ± 0.092
22,TATTATATAATATACTGTACAATATCCATTATTTAC [XGTACX_site7091],8.6 ± 0.39
23,ATTCATTCCATACTTTAACACACAAATATATTTAAT [CACACA_site7930],8.68 ± 0.34
24,TTTATACAAATATGTACACACTAAATATATATTATG [CACACA_site4413],8.52 ± 0.3
25,AAAGGAAAAGTTGACTGTACATAAGTAAAAAATAAT [XGTACX_site788],9.15 ± 0.42
